According to patent publication US20080188508A1, “Methods and Therapies for Potentiating a Therapeutic Action of an Opioid Receptor Agonist and Inhibiting and/or Reversing Tolerance to Opioid Receptor Agonists” (priority 2007, published 2008):
Where two headings read alike, the source gives them in different places.

What was measured:
[1] = system: CGRP-immunoreactivity in the spinal dorsal horn; conditions: for increase in the mean optical density of CGRP-immunoreactivity compared to saline-treated controls: i.t. morphine 15 μg for 10 days
[2] = system: Sprague Dawley rats
[3] = system: Sprague Dawley rats; remark: listed apart in the source
Procedure: Experiments were performed in accordance with guidelines of the Canadian Council on Animal Care using protocols approved by the University Animal Care Committee. Adult male Sprague Dawley rats (200-250 grams) (Charles River, Quebec) were housed in separate cages and maintained on a 12 hour light/12 hour dark cycle with access to food and water ad libitum.
Animals were anaesthetized with halothane (4%) and implanted with an indwelling intrathecal catheter. A small puncture was made in the atlanto-occipital membrane and a polythene catheter (PE-10; 7.5 cm long) inserted caudally so that the tip rested on the lumbar enlargement of the spinal cord. The rostral end was exteriorized to facilitate drug administration. Surgical wounds were closed with sutures and animals allowed to recover for one week. Animals showing signs of forelimb or hindlimb paralysis were excluded from experiments. Drugs were injected in a 10 μl volume (i.t.) followed by 10 μl of 0.9% saline to flush the catheter.
Response to an acute thermal nociceptive stimulus was assessed in rats using the tail-flick test. Radiant heat was applied to the dorsal surface of the tail using an analgesic meter and the time latency for removal of the tail from the stimulus was recorded. […]
Response to an acute mechanical nociceptive stimulus was assessed using the paw-pressure test. Using an air-filled inverted syringe, pressure was gradually applied to the dorsal surface of the hindpaw until a paw withdrawal response was observed and the value (mmHg) recorded. […]
Tail-flick and paw-pressure values were converted to a maximum percentage effect (M.P.E.): M.P.E.=100×[post-drug response−baseline response]/[maximum response−baseline response]. Data in the figures are expressed as mean±s.e.mean. ED50 values were determined using a non-linear regression analysis (Prism 2, GraphPad Software Inc., San Diego, Calif., USA). Statistical significance (p<0.05) was determined using a one-way analysis of variance (ANOVA) followed by a Student Newman-Keuls post hoc test for multiple comparisons between groups.

[4] = system: Sprague Dawley rats; remark: listed apart in the source
[5] = Acute Tolerance, morphine 15 μg, AM-251 3.2 μg i.t.
[6] = Chronic Tolerance, days 1-5, morphine 15 μg, AM-251 3.2 μg i.t.
[7] = Maintenance of Chronic Tolerance: Mor 15 μg D1-5, saline D6-10
[8] = Maintenance of Chronic Tolerance: Mor 15 μg D1-5, then D6-10 the labelled treatment (Mor, Mor + AM-251 3.2 μg, or AM-251 3.2 μg)
[9] = 5-day i.t. morphine 15 μg, ED50 on day 6
[10] = 10 day i.t. morphine 15 μg, ED50 on day 11
[11] = Acute Tolerance: three i.t. injections over 4 h of Mor 15 μg, AM-251 3.2 μg or both, morphine ED50 from cumulative dose-response the following day
[12] = Chronic Tolerance: daily i.t. days 1-5 of Mor 15 μg, AM-251 3.2 μg or both, morphine ED50 on day 6
[13] = Maintenance of Chronic Tolerance: Mor 15 μg days 1-5, then days 6-10 the labelled treatment (Mor 15 μg, Mor + AM-251 3.2 μg, or AM-251 3.2 μg), morphine ED50 on day 11
[14] = acute tolerance, repeated i.t. morphine 15 μg

## CN1CC[C@]23c4c5ccc(O)c4O[C@H]2[C@@H](O)C=C[C@H]3[C@H]1C5.O=S(=O)(O)O [morphine, Morphine sulphate]
[1]; [5]
  Deeper Laminae (mean ± s.e.mean), mean optical density of CGRP-immunoreactivity: 81.6 ± 7.8
  Superficial Laminae (mean ± s.e.mean), mean optical density of CGRP-immunoreactivity: 146.0 ± 6.7
[1]; [6]
  Deeper Laminae (mean ± s.e.mean), mean optical density of CGRP-immunoreactivity: 89.5 ± 11.9
  Superficial Laminae (mean ± s.e.mean), mean optical density of CGRP-immunoreactivity: 195.7 ± 12.0
[1]; [7]
  Deeper Laminae (mean ± s.e.mean), mean optical density of CGRP-immunoreactivity: 84.8 ± 13.6
  Superficial Laminae (mean ± s.e.mean), mean optical density of CGRP-immunoreactivity: 141.8 ± 4.5
[1]; [8]
  Deeper Laminae (mean ± s.e.mean), mean optical density of CGRP-immunoreactivity: 103.0 ± 7.5
  Superficial Laminae (mean ± s.e.mean), mean optical density of CGRP-immunoreactivity: 176.1 ± 8.2
[1]; acute i.t. morphine 15 μg over 4 hours
  effect on CGRP-immunoreactivity: failed to have an effect
[1]; deeper laminae, daily i.t. morphine for 5-days
  effect on CGRP-immunoreactivity: no significant effect
[1]; deeper laminae
  increase in the mean optical density of CGRP-immunoreactivity compared to saline-treated controls: 45%
[1]; morphine stopped after day 5, only saline on days 6-10
  CGRP-immunoreactivity after cessation of treatment: return of CGRP-immunoreactivity to baseline levels
[1]; superficial laminae, daily i.t. morphine for 5-days
  increase in the mean optical density of CGRP-immunoreactivity: 46%
[1]; superficial laminae
  increase in the mean optical density of CGRP-immunoreactivity compared to saline-treated controls: 38%
[2]; [9]
  increase in ED50 values compared to saline-only controls: 7.5 fold
[2]; [10]
  increase in morphine ED50 value compared to saline-only (morphine-naïve) animals: 9.6 fold
[2]; [11]
  Tail-flick ED50 (μg) (mean ± s.e.mean): 33.7 ± 0.9 µg
[2]; [12]
  Tail-flick ED50 (μg) (mean ± s.e.mean): 46.7 ± 2.1 µg
[2]; [13]
  Tail-flick ED50 (μg) (mean ± s.e.mean): 53.0 ± 3.6 µg
[2]; [14]
  increase in ED50 value as compared to saline-only controls: 5.9 fold
[3]; acute paradigm, drug without the other drug: single morphine injection then saline, or AM-251 3.2 μg alone
  morphine ED50 value versus saline-only control: not statistically different
[3]; i.t. morphine 15 μg daily, by day 5
  antinociceptive effect on repeated daily administration: progressive decline of antinociceptive effect to baseline levels
[3]; morphine days 1-5 discontinued, then saline (row morphine) or AM-251 alone (row AM-251) on days 6-10
  morphine ED50 value versus saline-only animals: comparable to saline-only
[4]; [9]
  increase in ED50 values compared to saline-only controls: 5.9 fold
[4]; [10]
  increase in morphine ED50 value compared to saline-only (morphine-naïve) animals: 6.8 fold
[4]; Acute Tolerance: Mor 15 μg once, then saline only, morphine ED50 the following day
  Paw-Pressure ED50 (μg) (mean ± s.e.mean): 8.9 ± 0.4 µg
[4]; [11]
  Paw-Pressure ED50 (μg) (mean ± s.e.mean): 35.2 ± 3.3 µg
[4]; [12]
  Paw-Pressure ED50 (μg) (mean ± s.e.mean): 59.9 ± 4.0 µg
[4]; Maintenance of Chronic Tolerance: Mor 15 μg days 1-5, saline days 6-10, morphine ED50 on day 11
  Paw-Pressure ED50 (μg) (mean ± s.e.mean): 10.7 ± 2.2 µg
[4]; [13]
  Paw-Pressure ED50 (μg) (mean ± s.e.mean): 49.8 ± 6.5 µg
[4]; [14]
  increase in ED50 value as compared to saline-only controls: 5.6 fold
